Reference: the supplement of paper PMC3334620
The full ranking holds about 33,000 sequences; the median of “E-score (-0.5 to 0.5)” is about -0.017, and the highest 2% start at about 0.3. The list shows a part of the results.

The sequences below were run against T1, Sut1 (UniProt P53032) (assay: PBM E-score (8-mer binding enrichment) (E-score (-0.5 to 0.5)); higher = stronger / more preferred TF binding; most listed sequences are background and not binding sites). Details: protein concentration: 200 nM; construct: GST-full length.
T1 sequence: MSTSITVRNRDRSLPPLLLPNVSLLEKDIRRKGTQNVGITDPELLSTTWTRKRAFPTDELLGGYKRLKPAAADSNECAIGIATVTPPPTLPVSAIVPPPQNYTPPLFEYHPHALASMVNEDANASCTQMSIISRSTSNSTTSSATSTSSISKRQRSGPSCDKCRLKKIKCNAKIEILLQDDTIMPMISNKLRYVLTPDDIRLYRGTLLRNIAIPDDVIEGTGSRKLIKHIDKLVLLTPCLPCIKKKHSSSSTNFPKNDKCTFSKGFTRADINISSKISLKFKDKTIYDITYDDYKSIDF
Summary of the method: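 Yeast transcription factors, full-length or as DNA-binding domains, were expressed with a GST tag using PURExpress in vitro transcription/translation. At about 100-200 nM they were applied to universal all-10-mer Agilent arrays, double-stranded by primer extension on fresh or once-stripped slides. Fluorescent anti-GST detected bound protein, and masliner normalised the scans. E-scores for ungapped eight-base words, pooled with reverse complements, came from the Universal PBM Analysis Suite.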

| Sequence | PBM E-score |
| --- | --- |
| ATAGTTCG | 0.041 |
| CTGTGAAA | 0.145 |
| GGACGCAA | -0.123 |
| ATAGTAAC | 0.153 |
| ATGCGTCC | -0.205 |
| AACACAAA | 0.153 |
| TCAAAGCA | 0.112 |
| CATTGTCG | 0.0481 |
| ACGTTACT | 0.044 |
| ACAGTCAA | -0.0644 |
| AGAGTAAA | 0.0337 |
| GCGAGCTA | 0.087 |
| CTGTGTGC | -0.185 |
| CACAGGAG | -0.186 |
| CTCGAACC | -0.0591 |
| CGTGCCCC | -0.249 |
| CGCTACGA | 0.0897 |
| TAACAGTA | 0.0897 |
| GATAGCCA | -0.0381 |
| AGGCCCAG | -0.194 |
| CATGCTAC | -0.141 |
| ACCGACAG | -0.146 |
| ACCGAGTC | -0.016 |
| ACTATATA | 0.308 |
| CCCGACCC | -0.218 |

| Sequence | PBM E-score |
| --- | --- |
| CTGATAAA | 0.291 |
| AGTTGAGA | 0.0527 |
| GCTTGCTA | -0.204 |
| CGCACACA | -0.161 |
| AAGTTTCA | 0.17 |
| CGTCAGTC | 0.0155 |
| GGCGCCAA | -0.117 |
| GGCGGCCA | -0.169 |
| ATTTACGC | 0.0857 |
| ATATTCGG | 0.0593 |
| TATACTAA | 0.197 |
| ACGTGCCA | -0.159 |
| CCCGCGGG | -0.159 |
| ATCGTCTG | -0.131 |
| GGACCGTA | -0.172 |
| AACAACGT | 0.0217 |
| GCACAGCA | -0.0831 |
| GCACAGAA | 0.0732 |
| CATACCAA | -0.0452 |
| CTGCGTTC | 0.0373 |
| CCGGAGTA | 0.49 |
| ACTGGGAC | -0.0864 |
| AGACGATC | -0.165 |
| AACCTCCT | -0.164 |
| GACCTGGA | -0.194 |

| Sequence | PBM E-score |
| --- | --- |
| AAAGAATG | 0.244 |
| AGCCTAAC | -0.192 |
| AGTGGCCC | -0.078 |
| CAATCCGA | 0.0936 |
| GCCCCACC | -0.0533 |
| AGGTCATA | 0.014 |
| ACATAAAT | 0.184 |
| CAGTCGAG | -0.103 |
| GGACTAAC | 0.277 |
| AGCAACAT | 0.0299 |
| CCGAGCTC | 0.209 |
| CCAGTGCA | -0.238 |
| CCCCGGGA | -0.0206 |
| AGAAGATC | 0.0447 |
| AAACCACC | -0.0477 |
| CCTGCGGC | -0.292 |
| ACTACCCA | -0.256 |
| GGCCCAGA | -0.239 |
| AAGCCGAT | 0.104 |
| ATAATCAC | 0.107 |
| TTACAAAA | 0.276 |
| CCTCGTCC | -0.132 |
| ATATGTTC | 0.188 |
| GGTATGAC | -0.312 |
| CCTCTGAA | -0.16 |

| Sequence | PBM E-score |
| --- | --- |
| CCGTGCTC | 0.0504 |
| TGAGATAA | 0.0925 |
| ACTTCGAC | 0.0552 |
| CGCCAAAA | 0.103 |
| ATCCAAGA | 0.0917 |
| CTCTGATC | -0.066 |
| CATGCTGG | -0.231 |
| ACTCCGCG | 0.476 |
| GTGGAATA | -0.0263 |
| ACGACAGA | -0.198 |
| GACGAGCA | -0.106 |
| ATGTTGTG | 0.0782 |
| ACCGGCGC | 0.0837 |
| ACCGCCAA | -0.114 |
| AGGAACTG | -0.142 |
| CATTCTTA | 0.0137 |
| GTGGCGTA | -0.125 |
| TCGACCAA | -0.155 |
| TATTCCAA | 0.0744 |
| CTGTTACC | -0.141 |
| GCGTAGAC | -0.135 |
| ATGTGGAC | -0.0954 |
| CTACTTGA | -0.145 |
| ATGGACGA | 0.0709 |
| GCTCTAGA | -0.125 |

| Sequence | PBM E-score |
| --- | --- |
| CCTTCTTA | -0.0123 |
| GGCAGCCA | -0.102 |
| CACAACCG | 0.0517 |
| ATAAGATC | 0.00037 |
| CAGATCCC | -0.176 |
| AGGACCGG | 0.0365 |
| GGACCGGA | 0.34 |
| CTGGACGC | -0.304 |
| CGTGAAGA | -0.026 |
| GAATATCA | 0.0118 |
| ACCAAAAC | 0.0916 |
| TAACACTA | 0.224 |
| ATGTCTCC | 0.123 |
| ACCGGGAG | -0.0335 |
| AGTGCGGG | 0.0372 |
| CATGCTCC | -0.217 |
| AGTACTAG | -0.00814 |
| TGGAAAAA | 0.119 |
| CGACCAAG | -0.158 |
| AGAACAGA | 0.126 |
| CTTTTGAC | 0.0348 |
| GAGAATCA | 0.0959 |
| TATCCGCA | 0.169 |
| GATGTCAA | 0.0214 |
| CATGGGGA | -0.257 |

| Sequence | PBM E-score |
| --- | --- |
| ATTCCAGA | -0.00019 |
| GAAGTGGC | -0.21 |
| CGTTTGTA | 0.163 |
| CCTACGGA | 0.0511 |
| GCCGTTTA | 0.129 |
| CCGACATC | -0.0523 |
| ATGTTCAC | -0.122 |
| AGGCGCTG | 0.0651 |
| CTCTTCAG | -0.134 |
| CGTTATTA | 0.143 |
| ACAAGGAC | -0.0266 |
| CTCGTCTC | -0.114 |
| AGACCTCC | -0.207 |
| CAAGCATC | -0.0747 |
| ATCTGGTA | -0.127 |
| GTAAGTTA | 0.123 |
| ACGTACGC | -0.148 |
| ATGCATGG | -0.0121 |
| TATATATA | 0.381 |
| AGGGAATA | 0.0626 |
| CAGGTGCA | -0.128 |
| GTGAGCAC | -0.201 |
| CAAATCGG | 0.0756 |
| CAACATAA | 0.19 |
| CACGATCG | -0.0348 |

| Sequence | PBM E-score |
| --- | --- |
| AATGGGAC | -0.19 |
| CGGGACCC | -0.191 |
| ATTATGAC | 0.2 |
| CTTGAGGA | 0.0322 |
| AGCGCCCC | -0.311 |
| CTTTGTTA | 0.216 |
| CACGCTCG | -0.147 |
| AGTGCAAA | 0.174 |
| ACCCGTCA | -0.145 |
| AAATACAC | 0.0774 |
| CAACTGCA | -0.00961 |
| CGGTGAAC | -0.0444 |
| CGATATAG | -0.0446 |
| ACGTCACA | 0.00675 |
| CACGTCTG | -0.127 |
| CAGCTAGG | -0.236 |
| GCGGAACA | -0.11 |
| GGGCGACC | -0.18 |
| AGGGTTAG | -0.209 |
| CGGACTCC | 0.475 |
| ACATATGA | 0.0703 |
| GTCGTCCA | -0.127 |
| AAGACCGG | 0.13 |
| CGATAAAA | 0.303 |
| ACCCTTAC | -0.129 |

| Sequence | PBM E-score |
| --- | --- |
| CCTCAGGC | -0.223 |
| AACCTTGC | -0.0267 |
| CTTTCAAC | -0.0409 |
| GATGAATA | 0.208 |
| AAACAGCT | -0.0346 |
| GAAGCAGA | 0.0478 |
| GAAGCCAC | -0.0595 |
| AGGTACGA | -0.171 |
| CACACTTC | -0.167 |
| CCCGTCAA | -0.077 |
| AGTAGACA | 0.16 |
| CATTGCCG | 0.0441 |
| AACCTAAA | 0.168 |
| AGATGATA | 0.175 |
| AGCAGGAG | -0.0481 |
| ATTGTGTA | 0.105 |
| AGAGTCAG | -0.274 |
| GTGTCGAA | -0.283 |
| CCACCACA | -0.00498 |
| CCGACTTA | 0.0927 |
| AACAAAGG | 0.133 |
| CTTTTTGA | 0.133 |
| CCTTGACA | -0.179 |
| CGCTGTTA | -0.199 |
| AATGTGTG | 0.0166 |

| Sequence | PBM E-score |
| --- | --- |
| ACTTAGCC | -0.129 |
| ACATATCT | 0.181 |
| AACCCTGG | -0.228 |
| AGTGGGTG | -0.0438 |
| GTTCTTGA | 0.0691 |
| GCGTCGAC | -0.061 |
| CATCCATC | 0.0878 |
| CATGTTCA | -0.101 |
| AATCCTGA | -0.0303 |
| CCGAGTGC | -0.108 |
| CCCTTACA | -0.0257 |
| CGTATACA | 0.0538 |
| CACGAATC | -0.0216 |
| ATCGTTCG | 0.0986 |
| GAGCCCTA | -0.0005 |
| ATTAGTAA | 0.23 |
| CTATTCCC | -0.00426 |
| ATTGGGAA | 0.061 |
| GCGGCCCA | 0.00935 |
